Laboratory results from PubChem BioAssay AID686978 (National Center for Advancing Translational Sciences (NCATS), 2013).
The whole screen tested about 420,000 compounds, of which about 64,000 (15%) were called active. The inconclusive results got no clear call from the source; some entries with a clear call stand among them for comparison. Calls follow the shape of the dose curve; as a rule, active = well fitted inhibition curve with a large enough effect; inconclusive = small, poorly fitted or top-dose-only effect; inactive = flat fitted curve, though single readings scatter. Potencies of inconclusive entries are left out as doubtful fits.

Experiment: qHTS for Inhibitors of human tyrosyl-DNA phosphodiesterase 1 (TDP1): qHTS in cells in absence of CPT; also: nearly all actives have a fitted effect of over 55% in size
Details: DT40 Tdp1-/- hTDP1 cells, no CPT, ATP luminescence, 48 h; activity change, negative = growth inhibition: at 46.2 µM (top of the series) unless noted
Summary of the method: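 Luminescent ATP content (CellTiter-Glo) served as the growth readout. Knockout chicken DT40 cells expressing human TDP1 were exposed to compounds without camptothecin for a minimum 48 hr at 37 °C.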
% is scaled to controls: 0 for no effect and ±100 for the full control effect; potency is read from the fitted curve at half-maximal effect; tags tell the direction and shape of the fitted curve.

| SMILES | activity change, negative = growth inhibition | Potency |
| --- | --- | --- |
| NC(=O)C1CCN(C(=O)OCc2ccccc2)CC1 | inactive: -1.86% |  |
| Cc1cc2occ(CC(=O)Nc3nccs3)c2cc1C(C)C |  | inconclusive [inhibitor, single point] |
| CC1=C(c2ccc(C)c(C)c2)S(=O)(=O)N(Cc2ccc(C(=O)NCc3ccc(C)cc3)cc2)C1=O |  | inconclusive [inhibitor, single point] |
| COc1ccc(Cc2nc3c4cnn(-c5ccccc5Br)c4ncn3n2)cc1 |  | inconclusive [inhibitor, single point] |
| Cc1ccc(Sc2ccc(/C=N/O)cc2[N+](=O)[O-])cc1 |  | inconclusive [inhibitor, full curve, poor fit] |
| Cc1ccc(NC(=O)CN(C)S(=O)(=O)c2cccc3cccnc23)cc1C |  | active: 14.6 µM |
| CN1CCc2c(OCC(=O)N3CCC(Cc4ccccc4)CC3)cccc2C1=O |  | active: 18.4 µM |
| OC[C@H]1O[C@@H](c2nc(-c3ccc(Br)cc3)no2)C[C@@H]1O |  | inconclusive [inhibitor, single point] |
| Cc1cccc(CCN2C(N(C)C)=NC[C@@H]2Cc2ccccc2)c1 |  | inconclusive [inhibitor, single point] |
| Cc1cccc(-n2nc3c(c2NC(=O)C2CC2)CS(=O)(=O)C3)c1C | inactive: -0.0101% |  |
| O=C(CSCc1cc(=O)n2nc(C3CC3)sc2n1)Nc1ccc(F)cc1 | inactive: 10.5% |  |
| COc1ccc(/C=C/C(=O)Oc2cccc(/C=N/NC(=O)COc3c(C)cccc3C)c2)cc1 |  | active: 14.6 µM |
| Cc1cnc(-n2ncc(C(=O)N(CCO)C(C)C)c2-c2cccs2)nc1-c1ccc(F)cc1 | inconclusive: -30.6% [inhibitor] |  |
| O=C(NN=C1CCCCCCC1)c1ccc(F)cc1 |  | inconclusive [inhibitor, single point] |
| COc1ccc(/C=C/C(=O)Nc2ccc(Cl)c(Cl)c2)cc1OC |  | active: 20.6 µM |
| Cc1cc(NC(=O)c2cc(-c3ccccc3C)nc3ccccc23)no1 |  | active: 20.6 µM |
| COc1ccc(C2C(Oc3ccccc3)C(=O)N2c2ccc(C)c(C)c2)cc1OC (configuration not stated) |  | inconclusive [inhibitor, single point] |
| OCc1c[nH]c(=S)n1CCOc1cccc(C(F)(F)F)c1 |  | inconclusive [inhibitor, partial curve] |
| COc1ccc2nc(C)cc(Nc3ccc(N4CCN(C)CC4)cc3)c2c1 |  | active: 3.26 µM |
| COc1cc(-c2nc3cnccn3c2Nc2ccc3c(c2)OCCO3)ccc1O |  | inconclusive [inhibitor, partial curve] |
| CCC(=O)N1Cc2cc(C(=O)NCC(F)(F)F)nc(-c3cccc(-c4cncnc4)c3)c2[C@@H]1CCO |  | inconclusive [inhibitor, single point] |
| O=C(CNC(=O)c1ccc(Cl)cc1Cl)OCn1nnc2ccccc2c1=O |  | inconclusive [inhibitor, single point] |
| O=C(COc1ccc(Br)cc1CO)Nc1ccc(S(=O)(=O)N2CCCC2)cc1 |  | inconclusive [inhibitor, single point] |

| SMILES | activity change, negative = growth inhibition | Potency |
| --- | --- | --- |
| CCC(Oc1ccccc1)C(=O)Nc1nnc(C(F)(F)F)s1 (configuration not stated) |  | inconclusive [inhibitor, single point] |
| COc1ccc(-c2cnc(C(N)=O)c(=O)[nH]2)cc1 | inactive: -4.59% |  |
| CCOCCCNC(=O)c1ccc2c(c1)N(CC)C(=O)c1ccccc1S2=O (configuration not stated) |  | inconclusive [inhibitor, single point] |
| CC(C)(C)c1ccc(C(=O)c2cn[nH]c2-c2ccccc2O)cc1 |  | inconclusive [inhibitor, partial curve] |
| COc1ccc(C2C(C(=O)Nc3ccc4c(c3)OCCO4)c3ccccc3C(=O)N2C)cc1 (configuration not stated) |  | inconclusive [inhibitor, single point] |
| COc1ccccc1C1=NC(c2ccccc2)CN1c1ccccc1 (configuration not stated) |  | inconclusive [inhibitor, single point] |
| CC1(c2ccc(Cl)cc2Cl)NC(=O)N(CC(=O)NCCC2=CCCCC2)C1=O (configuration not stated) |  | inconclusive [inhibitor, single point] |
| COC(=O)C1=NN(c2ccccc2)C2(S1)S/C(=C\c1ccccc1)C(=O)N2c1ccccc1 (configuration not stated) |  | inconclusive [inhibitor, partial curve] |
| Cc1cccc(N(C)C(=O)C2CCN(S(=O)(=O)c3cccc4nonc34)CC2)c1 |  | inconclusive [inhibitor, single point] |
| COc1ccc(N=Nc2cnc(C)nc2-c2ccccc2)cc1 |  | inconclusive [inhibitor, single point] |
| Cc1c(NC(=O)c2cc3ccccc3o2)cccc1-c1nc2ccccc2o1 |  | inconclusive [inhibitor, single point] |
| CN(c1ccccc1)S(=O)(=O)c1ccc(C(=O)N2CCc3ccccc3C2)cc1 |  | inconclusive [inhibitor, single point] |
| CCOc1ccc2oc(=O)cc(CN3CCN(C(=O)c4ccc(Cl)cc4)CC3)c2c1 |  | active: 20.6 µM |
| COc1ccc(N(CC(=O)N2CCN(c3ccccc3F)CC2)S(=O)(=O)c2ccc(C)cc2)cc1 |  | inconclusive [inhibitor, single point] |
| COc1ccc2nc(SCC(=O)N3CCCCCC3)c(C#N)cc2c1 |  | active: 16.4 µM |
| CCN1CCN(c2ccc(S(=O)(=O)N3CCOCC3)cc2NC(=O)c2ccc(Cl)cc2Cl)CC1 |  | active: 20.6 µM |
| Cc1ccc(CN2CCN(CC(=O)NC(C)CCc3ccccc3)C2=O)cc1 (configuration not stated) |  | inconclusive [inhibitor, partial curve] |
| CCc1[nH]nc(C(=O)N2CCCC(Nc3ccc(C(C)C)cc3)C2)c1C (configuration not stated) |  | inconclusive [inhibitor, single point] |
| COc1ccc(OC)c(NC(=O)Cn2cc(C(=O)c3cccs3)c3ccccc32)c1 |  | active: 18.4 µM |
| O=C(COc1c(Br)cc(Br)c2cccnc12)N1CCc2ccccc2C1 |  | inconclusive [inhibitor, single point] |
| NC(=O)c1ccsc1NC(=O)COC(=O)c1ccc(Cl)cc1 | inconclusive: -32.7% [inhibitor] |  |
| COc1ccc(-c2coc3c(O)c(OC)ccc3c2=O)cc1 |  | inconclusive [inhibitor, single point] |
| O=C(CCCN=C1NS(=O)(=O)c2ccccc21)OCc1cc([N+](=O)[O-])cc2c1OCOC2 |  | inconclusive [inhibitor, partial curve, poor fit] |

| SMILES | activity change, negative = growth inhibition | Potency |
| --- | --- | --- |
| CCCCCC(=O)Nc1cc(S(=O)(=O)N2CCOCC2)ccc1N1CCN(C)CC1 | inactive: 0.318% |  |
| CC(C)CCn1c(-c2nonc2N)nc2ccccc21 |  | inconclusive [inhibitor, single point] |
| CCOc1cc(C(=O)Nc2ccc(C(=O)NCCN(CC)CC)cc2)ccc1OCC(=O)N1CCOCC1 | inactive: -17.4% |  |
| Cc1ccccc1OCCn1cc(C(=S)N2CCCC2)c2ccccc21 |  | inconclusive [inhibitor, single point] |
| CCC(=O)N(Cc1cc2c(C)cc(C)cc2[nH]c1=O)C1CCCCC1 |  | inconclusive [inhibitor, partial curve, poor fit] |
| Cc1ccc(C(C)C)c(OCCSc2nc(-c3cccs3)nc3cc(=O)[nH]n23)c1 |  | inconclusive [inhibitor, single point] |
| CS(=O)(=O)N(CC(=O)N1CCC(C(N)=O)CC1)Cc1ccc(Cl)c(Cl)c1 |  | inconclusive [inhibitor, full curve, poor fit] |
| O=C1/C(=C/c2ccncc2)SC(=S)N1Cc1ccccc1 |  | active: 16.4 µM |
| Nc1ccc2[nH]c(=S)sc2c1 |  | inconclusive [inhibitor, partial curve, poor fit] |
| O=C(NNC(=O)c1cc(-c2ccncc2)nc2ccccc12)c1ccccc1O |  | inconclusive [inhibitor, single point] |
| O=C(CSc1nc2ccc(NC(=O)CSc3nnnn3-c3ccccc3)cc2s1)Nc1ccccc1 |  | inconclusive [inhibitor, partial curve] |
| O=C(Nc1ccc2ccccc2n1)c1ccc(Cl)cc1 |  | inconclusive [inhibitor, single point] |
| N#CCCN(Cc1ccccc1)C(=S)NC(=O)c1ccccc1 |  | active: 9.2 µM |
| c1ccc2c(c1)c1ccccc1n1c(-c3ccc4c(c3)OCO4)nnc21 |  | active: 20.6 µM |
| O=C(CCCn1c(=O)c2cccn2c2cccnc21)NCc1cccc(Br)c1 |  | inconclusive [inhibitor, partial curve] |
| COc1ccccc1C(=O)Nc1ccccc1SC | inconclusive: -32.5% [inhibitor] |  |
| Cc1nn(-c2ccccc2)cc1/C=N/NC(=O)c1cccs1 |  | inconclusive [inhibitor, partial curve, poor fit] |
| CCOC1=C2CN(S(=O)(=O)c3ccc(C)cc3)[C@H](c3ccccc3)C[C@@H]2N(S(=O)(=O)c2ccc(C)cc2)[C@H](c2ccccc2)C1 | inactive: -18.1% |  |
| COc1ccc(Nc2nc(Cl)nc(Nc3ccc(OC)cc3)n2)cc1 |  | inconclusive [inhibitor, single point] |
| CC(CCc1ccccc1)NC(=O)CN(C)Cc1ccccc1F (configuration not stated) |  | inconclusive [inhibitor, single point] |
| CCC(OC(=O)CNS(=O)(=O)c1ccccc1)C(=O)c1ccccc1 (configuration not stated) | inactive: -24.4% |  |
